# Source: PubChem BioAssay AID488895 (Broad Institute, 2010)
# Screen size: about 340,000 compounds; about 120 (0.035%) were called active. This list was built around the results that the source calls inconclusive (neither active nor inactive); the mix of calls is not that of the screen.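 How the source made its calls: active means mean replicate inhibition at least 50% and at least half of replicates individually reaching 50%; inconclusive means only one of the two criteria met; inactive means neither criterion met.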
# Test: E. coli Tat export inhibitors, primary screen, MC4100, TorA-mCherry reporter, fluorescence, single point (AID 488895);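 further: exported cargo escapes ClpAP degradation while cytoplasmic cargo is degraded and loses fluorescence; 0% = median of neutral control wells and 100% = median of NaSCN control wells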
# Conditions: at 10 µM, stronger effect = higher value
row,SMILES,inhibition
1,Cc1cccc2nc(CSc3nc4ccccc4o3)cn12,inactive: -0.335%
2,CCOc1nc(Nc2ccc(OC)c(Cl)c2)nc(OCC)n1,inconclusive: 33.2%
3,NC(=S)N/N=C/c1ccc(-c2cc(Cl)ccc2Cl)o1,inconclusive: 30.3%
4,O=C(Cn1c(=O)oc2cc(S(=O)(=O)N3CCc4ccccc43)ccc21)N1CCCCC1,inconclusive: 34.3%
5,COc1cccc(CNC(=O)CN2C(=O)CCSc3ccc(S(=O)(=O)N4CCCC4)cc32)c1,inconclusive: 43.1%
6,COc1cccc(C2CC(c3c(-c4ccccc4)c4cc(Cl)ccc4[nH]c3=O)=NN2S(C)(=O)=O)c1OC (stereo not drawn),inconclusive: 24.2%
7,Cc1nc(C)c(C(=O)OCC(=O)NCCc2ccc(S(N)(=O)=O)cc2)s1,inactive: -0.256%
8,COc1ccc(NC(=O)COCC(=O)Nc2ccc(C)cc2)cc1,inconclusive: 22.5%
9,Cc1ccc(Sc2nc3ccc(C)cn3c(=O)c2/C=N/O)cc1,inconclusive: 25.2%
10,Cc1ccc(C)c(NC(=O)CN(C)C(=O)c2cccc(S(=O)(=O)N(C)C)c2)c1,inconclusive: 27.6%
11,CCc1ccc(-c2cc(C(=O)Nc3ccc(S(=O)(=O)NC(C)=O)cc3)c3ccccc3n2)cc1,inconclusive: 43.8%
12,CC1CCCCN1S(=O)(=O)c1ccc(NC(=O)c2cccc(-n3cnnn3)c2)cc1 (stereo not drawn),inactive: 2.8%
13,Clc1ccc(C2[C@H]3CN(Cc4cccnc4)[C@H](c4ccccc4)C34CC2(c2ccccc2)C4)cn1 (stereo partly drawn),inconclusive: 28.2%
14,COC(=O)/C(=C/c1ccco1)NC(=O)c1ccccc1,inconclusive: 22.8%
15,COc1ccc(N(C)S(=O)(=O)c2ccc(Cl)c(C(=O)NNC(=O)c3ccccc3O)c2)cc1,inactive: -5.44%
16,Cc1ccc(CCNC(=O)c2cc(S(=O)(=O)N3CCOCC3)cn2C)cc1,inactive: -5.94%
17,CC(=O)c1c(C)[nH]c(C(=O)Nc2ccccc2N2CCOCC2)c1C,inconclusive: 38%
18,Cn1ccc(=Nc2ccc(NC(=O)c3ccc(N=c4ccn(C)c5ccc([N+](=O)[O-])cc45)cc3)cc2)cc1,active: 112%
19,COc1cc(NC2c3ccccc3C(=O)N2Cc2ccc3c(c2)OCO3)cc(OC)c1OC (stereo not drawn),inconclusive: 30.7%
20,O=C(O)CN1C(=O)/C(=C\c2cccc(OCc3ccc(Cl)cc3Cl)c2)SC1=S,inconclusive: 42.4%
21,COc1ccc(-n2c(C)cc(/C=N/Nc3nnc(C)n3N)c2C)cc1,inactive: -17.4%
22,CCN(CC)CCn1c(=N)n(CC(=O)c2ccc(C)cc2)c2ccccc21,inactive: 5%
23,c1coc(CN2CNc3nc4ccccc4n3C2)c1,inconclusive: 24.7%
